# The whole screen tested about 45,000 compounds, of which about 65 (0.1%) were called active. Inconclusive means that the source gave no clear call. Such entries were picked first, then a sample of the others. Calls follow the shape of the dose curve; as a rule, active = well fitted activation curve with a large enough effect; inconclusive = small, poorly fitted or top-dose-only effect; inactive = no such curve, though single readings can be large or run the other way. Where the call is inconclusive, the potency comes from a doubtful curve fit.
# Target: Galactocerebrosidase (Homo sapiens) (UniProt P54803)
# UniProt P54803, sequence (P54803 whole entry, looked up): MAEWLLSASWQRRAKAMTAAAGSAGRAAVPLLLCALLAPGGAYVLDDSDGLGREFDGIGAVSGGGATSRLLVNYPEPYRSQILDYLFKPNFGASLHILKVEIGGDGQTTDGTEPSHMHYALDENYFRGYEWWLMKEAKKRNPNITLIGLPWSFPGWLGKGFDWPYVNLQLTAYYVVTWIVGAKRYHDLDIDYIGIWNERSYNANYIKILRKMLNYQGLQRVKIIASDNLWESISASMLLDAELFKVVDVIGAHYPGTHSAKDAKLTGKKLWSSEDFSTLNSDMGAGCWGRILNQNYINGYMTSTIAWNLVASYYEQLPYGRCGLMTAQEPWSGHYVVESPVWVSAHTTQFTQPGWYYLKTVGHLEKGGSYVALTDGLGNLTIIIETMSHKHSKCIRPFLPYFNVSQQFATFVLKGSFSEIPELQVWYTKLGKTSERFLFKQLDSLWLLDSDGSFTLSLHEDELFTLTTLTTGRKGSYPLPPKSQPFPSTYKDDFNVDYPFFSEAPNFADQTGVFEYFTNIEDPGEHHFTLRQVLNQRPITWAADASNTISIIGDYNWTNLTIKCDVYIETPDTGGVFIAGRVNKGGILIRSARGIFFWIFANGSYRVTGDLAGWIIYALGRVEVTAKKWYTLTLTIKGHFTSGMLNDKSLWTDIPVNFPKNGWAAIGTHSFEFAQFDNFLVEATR
# Test: A Novel Cell-Based Assay to Identify Small Molecules for B -Galactocerebrosidase; also: nearly all actives have a fitted effect of over 65% in size; as to activation: 0% is about no effect
# Details: 145M-Twi-hGALC-G270D cells (Twitcher mouse brain line with human GALC G270D), HMU-beta-Gal fluorescence, 48 h; activation: at 57.5 µM (top of the series)
# From the text: Lysosomal storage diseases (LSDs) are caused by genetic mutations in genes encoding proteins important for normal lysosomal function. Globoid cell leukodystrophy (GLD), mostly known as Krabbe disease, is a prototype of the neurological LSDs caused by deficiency of beta-galactocerebrosidase (GALC). In brain specimens of GLD patients, psychosine levels are substantially elevated. At elevated concentrations, psychosine becomes cytotoxic to neuronal cells, particularly to oligodendrocytes (OLG), neural cells responsible for myelin formation. Therefore, the biochemical disturbances in GLD are manifested by different degrees of brain demyelination resulting in a broad spectrum of neurological manifestations. Most of the FDA-approved therapies are based on enzyme replacement therapeutic (ERT) agents, which treat non-neurological symptoms of Gaucher disease, Fabry disease, few mucopolysaccharidoses and Pompe disease. Unfortunately, in GLD, a primarily neurological LSD, ERT agents, as large molecular weight molecules unable to cross the blood-brain barrier, which makes this an inefficacious therapeutic approach. In GLD, increasing the residual GALC activity just above the critical threshold (~10% of wild type enzymatic activity), the cytotoxic levels of psychosine will be reduced, avoiding the OLGs apoptosis and the subsequent demyelination process. This will translate in disease stabilization and amelioration of GLD patient symptoms.
# A cell-based assay in 1,536-well plate format was developed to implement a quantitative high-throughput screening (qHTS) assay using GLD-disease relevant cells to identify small molecules that produce enhancements of the residual enzymatic activity levels of mutants GALC found and prevalent in GLD patients. Compounds that are active may therefore have some therapeutic application for GLD. After the treatment of live cells for a determined period, using a fluorescent GALC specific substrate, the mutant residual GALC activity is measured. This cell-based qTHS assay was used to screen part of the MLPCN library for small molecule able to increase the mutant GALC enzymatic activity. In this assay, increased fluorescent signal corresponds to enhanced levels of mutant GALC residual enzymatic activity. Activation is the desired outcome for this assay.
# NIH Chemical Genomics Center [NCGC]
# NIH Molecular Libraries Probe Centers Network [MLPCN]
# Assay Submitter (PI): Gustavo Maegawa MD,PhD, University of Florida, Gainesville, FL
# 2)#Two cell lines were established for the assay: 145M-Twi-hGALC-G270D (brain-derived Twitcher cell line stably expressing human GALC-G270D) and 145M-Twi-hGALC-WT (same 145M-Twi stably expressing human GALC wild type). The Twitcher is the murine C57B/6 model for GLD with naturally occurring homozygous nonsense GALC mutation. The 145M-Twi cell line was established at Maegawa lab (Ribbens J et al 2014).
# a.#Media: DMEM/F12 (1:1) with 10% fetal bovine-serum (FBS) with penicillin/streptomycin (PS-1X - 100 I.U./mL of penicillin+100 ug/mL of streptomycin).
# b.#The 6-Hexadecanoylamino-4-methylumbelliferyl-b-D-galactoside (HMU-B-gal) substrate was prepared as per Wiederschain et al 1992. Using 20-mL borosilicate tubes, 2.20 mg of HMU-b-Gal was added in each tube to prepare substrate-film with a final air-nitrogen stream evaporation to remove all diluent solvents.
# c.#The HMUb-Gal substrate buffer consists of 0.2 M Na2HPO4 (sodium phosphate dibasic)/ 0.1 M Citric Acid with the pH adjusted to 5.2 using HCl. Sodium Azide at 0.02% and Sodium Taurocholate (NaTC) at 1 mg/mL were added to this substrate buffer.
# d.#The HMU-b-Gal stopping buffer consist of 0.5 M NaHCO3 (sodium bicarbonate) /0.5 M Na2CO3 (sodium carbonate). […] Triton X-100 at 0.25% was added.
# 4)#Preparation of HMU-b-Gal substrate tubes
# Adding 18.6 mL of the HMUb-Gal substrate buffer to each 20-mL tube (2.20 mg of HMU-b-Gal) will reach a concentration of 0.2 mM. Vortex well the tube until the solution is fully homogenized (clear cloudy solution). […]
# Potency is read from the fitted curve at half-maximal effect; tags tell the direction and shape of the fitted curve.
Structure (SMILES),Potency,activation
O=S(=O)(c1ccccc1)c1nc(-c2cccc(Cl)c2)oc1NCc1ccccc1,"inconclusive: 39.8 µM [activator, single point]",
COc1ccc(OC)c(NC(=O)c2cc3cc4ccc(C)cc4nc3s2)c1,,inactive: -17.9%
COc1ccc(-c2cc(C(=O)Oc3cccc(C)c3C)c3ccccc3n2)cc1,"inconclusive: 22.4 µM [activator, single point]",
COc1ccc(-n2c(=O)c3c(c4cc(OC)ccc4n3C)n(CC(=O)N3CCCC3)c2=O)cc1,"inconclusive: 39.8 µM [activator, single point]",
COC(=O)c1c(SCC(=O)Nc2cccc(C(F)(F)F)c2)[nH]c2ccccc2c1=O,"inconclusive: 25.1 µM [activator, single point]",
Cc1cc(C)c(C#N)c(SCC(=O)Nc2ccccc2C#N)n1,"inconclusive: 39.8 µM [activator, single point]",
CCOCCCNC(=O)c1c(NC(=O)c2cc(=O)c3cc(C)c(C)cc3o2)sc2c1CCC2,,inconclusive: 92.1% [activator]
O=C(Cn1c(=O)n(Cc2ccc(F)cc2)c(=O)c2sc3ccccc3c21)NCc1ccccc1Cl,,inactive: -2.37%
O=C(Nc1ccc(F)c(F)c1)C1CCCN1S(=O)(=O)c1cccc2nsnc12 (configuration not stated),,inactive: -18.9%
O=S(=O)(NCc1ccc(Cl)cc1)c1ccc(N2CCCCS2(=O)=O)cc1,"inconclusive: 39.8 µM [activator, single point]",
O=C(NCCc1csc2nc(-c3ccc(F)cc3)nn12)c1ccco1,,inactive: -2.57%
Cc1ccc(S(=O)(=O)n2nc(-c3ccccc3)nc2NCc2ccccc2Cl)cc1,"inconclusive: 39.8 µM [activator, single point]",
CCOC(=O)c1ccc(NC(=O)CCn2c(=O)oc3ccccc32)cc1,"inconclusive: 2.24 µM [activator, partial curve]",
O=C(CCn1ccc2cc(S(=O)(=O)N3CCCC3)ccc21)NCc1cccc(Br)c1,"inconclusive: 39.8 µM [activator, single point]",
CC(=O)Nc1ccc(C2Nc3c(C)cc(C)cc3-c3cc(C)nn32)cc1 (configuration not stated),"inconclusive: 44.7 µM [activator, partial curve, poor fit]",
O=C(COc1ccc(F)cc1)Nc1ccccc1C(=O)OCc1cc(=O)n2nc(C3CC3)sc2n1,"inconclusive: 39.8 µM [activator, single point]",

Structure (SMILES),Potency,activation
CCN(c1cc(C)cc(C)c1)S(=O)(=O)c1nnc(NC(=O)c2cccs2)s1,,inactive: -37.6%
Cc1ccc(OCC(=O)Nc2ccc3nc(SCC(=O)N4CCc5ccccc54)sc3c2)cc1,,inactive: -7.75%
NCCc1ccc(O)c(O)c1,"inconclusive: 4.47 µM [activator, partial curve]",
O=C(C1CCC1)N1CCCc2cc(S(=O)(=O)Nc3ccc(F)cc3)ccc21,"inconclusive: 39.8 µM [activator, single point]",
Cc1ccc(S(=O)(=O)c2cn(Cc3ccc(F)cc3)c3cc(F)c(F)cc3c2=O)cc1,"inconclusive: 39.8 µM [activator, single point]",
COc1cc2cc(CNc3ccc(C)cc3)c(=O)n(CC(=O)Nc3ccc(C(C)C)cc3)c2cc1OC,"inconclusive: 22.4 µM [activator, partial curve]",
COc1ccc(CCNc2nc3cc(OC)c(OC)cc3c3nc(-c4cccnc4)nn23)cc1OC,"inconclusive: 0.158 µM [activator, full curve, poor fit]",
CCCCn1c(=O)nc2n(-c3ccc(F)cc3)c3ccccc3cc-2c1=O,"inconclusive: 31.6 µM [activator, single point]",
CCc1ccc(NCc2cc3cc(OC)c(OC)cc3n(CC(=O)Nc3cc(C)ccc3C)c2=O)cc1,"inconclusive: 28.2 µM [activator, single point]",
CCN(CC)CCCNC(=O)c1ccc2c(c1)NC(=O)C(CS(=O)(=O)Cc1cccc(Br)c1)N2 (configuration not stated),active: 35.5 µM,
COc1ccccc1CNc1ccc(-c2nc(-c3ccncc3)no2)cc1[N+](=O)[O-],"inconclusive: 0.178 µM [activator, full curve, poor fit]",
COc1ccccc1-n1c(/C=C/c2c(C)n(C)c3ccccc23)nc2ccccc2c1=O,"inconclusive: 31.6 µM [activator, partial curve]",
Cc1cccn2c(=O)c3cc(C(=O)NCc4ccccc4)c(=N)n(CCOCCO)c3nc12,active: 10 µM,
COc1ccc(NCc2cc3cc4c(cc3n(CC(=O)Nc3ccc(C)cc3)c2=O)OCO4)cc1,"inconclusive: 31.6 µM [activator, single point]",
COc1ccc(C(=O)N2CCc3cc(OC)c(OC)cc3C2COc2ccc3c(C)cc(=O)oc3c2)c(OC)c1 (configuration not stated),"inconclusive: 28.2 µM [activator, single point]",
CCCCCCc1cc2cc(-c3nnc(-c4ccc(C)cc4)o3)c(=O)oc2cc1O,"inconclusive: 39.8 µM [activator, partial curve]",
